Laboratory results as given in patent publication US20130336972A1 (published 2013).

Columns and labels:
human netrin-1 = molecular target: T1, human netrin-1 (human, UniProt O95631 25-604); assay: SPR, Biacore T100, 25 C; Fn5 variant 1 captured by anti-human IgG on CM5 chip, netrin-1 as analyte
T1 construct: also called human netrin-1, Alexis 522-100-0000; human metrin-1 Netris Pharma
Method: (§1) DCC-fusion protein (Fn5 variant 1; SEQ ID NO: 3) was captured via amine coupled capture molecules. A series with increasing concentrations of netrin-1 was injected.
(§2) Classical concentration series were measured at a flow rate of 50 μL/min by sequential injection of the analyte in 5 or 6 increasing concentrations between c=400-1 nM. The analyte was injected for 3 minutes followed by a dissociation phase of 20 minutes. Various netrin-1 samples from different manufacturers were used for the measurements (human netrin-1, Alexis 522-100-0000/human metrin-1 Netris Pharma/chicken netrin-1, Alexis 522-106-2010).
(§3) Kinetic parameters were calculated by using the usual double referencing (control reference: binding of analyte to capture molecule; Flow Cell: netrin-1 concentration “0” as Blank) and calculation with model ‘titration kinetics 1:1 binding.

chicken netrin-1 = chicken netrin-1 (chicken, UniProt Q90922); assay: as above
Method: as §1, §2, §3

koff (human netrin-1): 0.00057 s⁻¹ | kon (human netrin-1): 300000 M⁻¹ s⁻¹ | Kd (chicken netrin-1): 1.6 nM | koff (chicken netrin-1): 0.00013 s⁻¹ | kon (chicken netrin-1): 79000 M⁻¹ s⁻¹
B1: DCC-fusion protein (Fn5-Fc (IgG1) fusion protein; Fn5 variant 1), mature form (Fc fusion)
chain: STPMLPPVGVQAVALTHDAVRVSWADNSVPKNQKTSEVRLYTVRWRTSFSASAKYKSEDTTSLSYTATGLKPNTMYEFSVMVTKNRRSSTWSMTAHATTYEA[human IgG1 Fc omitted]
notes: Expressed in HEK293-Freestyle cells and purified by protein A and SEC; also called Fn5-Fc fusion protein
